From the RNAGym collection of RNA variant scans (doi:10.7554/elife.90254)
Read counts are not given, so values of variants with three or more changes are uncertain.

B1: LINE1-mini (parent)
chain: GGCAGAGCUCAACACAGCGUGGCAAAGUGGCUGUGGCUAGACUGCC

Variants of: B1
Experiment: self-cleavage, relative activity (ratio to wild type); higher = more cleavage; in vitro, sequencing; the parent is a self-cleaving ribozyme

Variant | self-cleavage
G5A A12G U20A U43C | 0.03
G5A A12G U34C G36C A41G | 0.01
G5A A12U C45U | 0.02
G5A A12U G30A | 0.06
G5A A14G C18U | 0.05
G5A A14U G29U C42U C45A | 0.01
G5A A14U G33A | 0.27
G5A A16C C45U C46A | 0.06
G5A A16U C23A G36C | 0.1
G5A A16U C23U A39U | 0
G5A A16U G27C G30U | 0.04
G5A A16U G29U | 0.15
G5A A16U U20G U34C | 0.03
G5A A24C A26G U32G | 0.06
G5A A24G C45A | 0.03
G5A A24U G33C | 0.03
G5A A25C G27A C45U | 0.2
G5A A25G A26U G27U | 0.17
G5A A25G C45U | 0.04
G5A A25G G29U | 0.13
G5A A25U A26C G33A | 0.02

Variant | self-cleavage
G5A A25U G29A U34A | 0.1
G5A A25U G35C G44U | 0.09
G5A A26C U28G A41U | 0.15
G5A A39U C46U | 0.05
G5A A41C C42A | 0.01
G5A A41G C42U | 0.06
G5A C8A A11C A14U C23U C37U A39G | 0
G5A C8A A12C C15A C23A G36A G40U | 0.04
G5A C8A C10G G35U C37A G40U | 0.01
G5A C8A C13A | 0.24
G5A C8A C18A | 0.14
G5A C8A C42U | 0.05
G5A C8A G19C A41C U43G | 0.18
G5A C8A G21U G33C | 0.08
G5A C8A U9C C15A U38C | 0.04
G5A C8G C10G A24U G27A | 0.01
G5A C8G C15U U28C C31A | 0.05
G5A C8U A11U A12C G22U | 0.03
G5A C8U A12C | 0.05
G5A C8U A26G G36A | 1.73
G5A C8U C10U | 0.04

Variant | self-cleavage
G5A C8U G44C | 0.28
G5A C8U U9G C31U | 0.06
G5A C10A C13A C23U G27U C37U | 0.01
G5A C10A C46U | 0.01
G5A C10A G17A A26U U32C C45A | 0.04
G5A C10A G19C A24U G27C U28C C46U | 0
G5A C10A G22U | 0.04
G5A C10G A24G | 0.01
G5A C10G C42A C46A | 0.02
G5A C10G G30C C46U | 0.01
G5A C10U A12G A24U U43C | 0.01
G5A C10U A26C A41C | 0.02
G5A C10U A26C A41U | 0.07
G5A C10U G19U G35A | 0.01
G5A C10U G21A C23U G27C G33C G40A | 0.03
G5A C10U G21A U34A G36A C45U | 0.05
G5A C13A A24G G29U | 0
G5A C13A G19C G22A C31A G33C | 0.02
G5A C13A G29U G35A C42G U43A G44U | 0.11
G5A C13G A16U G21U U43C | 0.03
G5A C13G C45G | 0.04

Variant | self-cleavage
G5A C13G G17A G19A A24G A41U | 0.07
G5A C13G G22A G29U | 0.07
G5A C13G G33U C42G | 0.07
G5A C13U A16U | 0.34
G5A C13U C15G C31G | 0.01
G5A C15A G17C A39G | 0.04
G5A C15A G19C | 0.08
G5A C15A U28G | 0.03
G5A C15G G35C | 0.01
G5A C15G U34A | 0
G5A C15G U34G | 0.05
G5A C15U A24U U28G C31A | 0.03
G5A C15U A26G C37A | 0.15
G5A C15U G19A G35A G40C | 0.05
G5A C15U G33U | 0.07
G5A C15U G36C | 0.05
G5A C18A A24G C45G | 0.06
G5A C18A G35C | 0.04
G5A C18A G35U G36U G40U | 0.04
G5A C18A G40C | 0.1
